According to publication PMC7002685, “Inhibition of vascular calcification by inositol phosphates derivatized with ethylene glycol oligomers” (Nature Communications, 2020):

Tested on: vascular calcification
Assay: Vitamin D3 (s.c.) + high-phosphate diet rat model of VC
Assay type: in vivo
Conditions: 30 mg/kg s.c. twice daily
Method: Male Sprague-Dawley rats were housed two per cage with free access to water and standard chow and submitted to a 12-h light/dark cycle. Compounds were administered and doses calculated using the salt form. […] Sham groups were injected with 0.9% NaCl instead of vitamin D3. […] Blood samples of 500 µL were collected on day 8 by fine needle from the tail vein and at sacrifice on day 12. […] Serum creatinine, calcium, and phosphorus were measured using standard colorimetric biochemistry analysis (Cobas Mira). Calcium tissue content was measured from dried carotids, whole left kidneys, and abdominal aortas by ICP-MS analysis. […] Images of the rat aortic trees were acquired on a Canon 5D MARKIII (Canon, Tokio, Japan) equipped with a 50 mm lens.
Calcium tissues’ contents were measured at the Central Environmental Laboratory (EPFL, Lausanne, Switzerland). Dry tissues (90 °C, overnight) were weighed and digested by aqua regia overnight at RT, followed by 2 h reflux, after which the solvent was completely evaporated with a steady flow of nitrogen gas. The dried samples were then reconstituted and homogenized with nitric acid. Calcium standards and samples were diluted with nitric acid. Absorbance was recorded using ICP-OES (Shimadzu ICPE-9000, Shimadzu). Two technical replicates were measured for each sample. Standard solutions were also included with the experimental samples for each set of measurements. Tissue concentrations of calcium were expressed as mg/g of dry tissue.

Structure (SMILES): COCCOCCO[C@@H]1[C@@H](OP(=O)(O)O)[C@H](OCCOCCOC)[C@@H](OP(=O)(O)O)[C@@H](OP(=O)(O)O)[C@H]1OP(=O)(O)O [(OEG2)2-IP4, 4,6-Di-O-(methoxy-diethyleneglycol)-myo-inositol-1,2,3,5-tetrakis(phosphate)]
- plasma calcium and phosphate levels: not impacted
- plasma creatinine: 39.8 ± 6.6 µM
- renal calcium content: reduction of renal calcium content
- Change in body weight (n = 11): -38 ± 7 g
- Final body weight (n = 11): 232 ± 12 g
- Phosphate (n = 11): 2.61 ± 0.34 mM
- Total calcium (n = 11): 3.28 ± 0.15 mM
